Data reported in the supplement of paper PMC4604168 (melanoma cell lines).
Some of the results follow. Repeats are few or missing, and single values can be far off.

Assays:
Experiment in all cases: cell count relative to DMSO control; melanoma cells; higher = more viable cells
Settings in all cases: library dose: low library concentration; 72 h
MZ2-MEL = tested on: MZ2-MEL
MeWo = tested on: MeWo
RPMI7951 = tested on: RPMI7951
RVH-421 = tested on: RVH-421
SkMel28 = tested on: SkMel28
SkMel2 = tested on: SkMel2
SkMel30 = tested on: SkMel30
SkMel5 = tested on: SkMel5
UACC257 = tested on: UACC257
UACC62 = tested on: UACC62
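Further: cell number obtained by counting DAPI-stained nuclei in high-throughput microscope images with image analysis software, screen run in 1,536-well plates.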

Row | Structure (SMILES) | cell count (MZ2-MEL) [%] | cell count (MeWo) [%] | cell count (RPMI7951) [%] | cell count (RVH-421) [%] | cell count (SkMel28) [%] | cell count (SkMel2) [%] | cell count (SkMel30) [%] | cell count (SkMel5) [%] | cell count (UACC257) [%] | cell count (UACC62) [%]
1 | COc1ccc(C2=N[C@@H](c3ccc(Cl)cc3)[C@@H](c3ccc(Cl)cc3)N2C(=O)N2CCNC(=O)C2)c(OC(C)C)c1 [Nutlin-3] + Cc1cc([N+](=O)[O-])ccc1NS(=O)(=O)c1cc(Cl)ccc1Cl [FH535] (first compound 0.1 µM, partner dose 1 µM) | 107 | 107 | 105 | 88.3 | 91.5 | 96.5 | 89 | 93.8 | 87.4 | 81.9
2 | Cc1cn(-c2cc(NC(=O)c3ccc(C)c(Nc4nccc(-c5cccnc5)n4)c3)cc(C(F)(F)F)c2)cn1 [nilotinib] + COc1cc2c(Oc3ccc4[nH]c(C)cc4c3F)ncnc2cc1OCCCN1CCCC1 [cediranib] (first compound 0.2 µM, partner dose 0.4 µM) | 95.4 | 96.3 | 94.2 | 98.3 | 98.5 | 96.6 | 85.3 | 85.3 | 74.4 | 99
3 | Cn1c(=O)n(-c2ccc(C(C)(C)C#N)cc2)c2c3cc(-c4cnc5ccccc5c4)ccc3ncc21 + NC(=O)Nc1cc(-c2cccc(F)c2)sc1C(=O)N[C@H]1CCCNC1 [AZD7762] (first compound 0.004 µM, partner dose 0.02 µM) | 102 | 92.6 | 88.7 | 86.1 | 89.7 | 93.8 | 98.2 | 118 | 121 | 95.8
4 | Cn1c(=O)n(-c2ccc(C(C)(C)C#N)cc2)c2c3cc(-c4cnc5ccccc5c4)ccc3ncc21 + Oc1nc(-c2ccc(C(F)(F)F)cc2)nc2c1CSCC2 [XAV939] (first compound 0.004 µM, partner dose 2 µM) | 93.8 | 88.3 | 92.1 | 17.7 | 71.8 | 87.2 | 95 | 85.9 | 90.4 | 76.1
5 | Cn1c(=O)n(-c2ccc(C(C)(C)C#N)cc2)c2c3cc(-c4cnc5ccccc5c4)ccc3ncc21 + O=C(O)c1ccc(-c2c[nH]c3ncc(-c4ccccc4)cc23)cc1C1CCCC1 [GSK650394] (first compound 0.004 µM, partner dose 0.16 µM) | 98.4 | 79.3 | 90.3 | 97.9 | 93.9 | 98 | 92.7 | 109 | 87.5 | 69.9
6 | COc1ccc(C2=N[C@@H](c3ccc(Cl)cc3)[C@@H](c3ccc(Cl)cc3)N2C(=O)N2CCNC(=O)C2)c(OC(C)C)c1 [Nutlin-3] + Oc1cc(-c2nc(-c3ccccc3)[nH]c2-c2ccncc2)ccc1Cl [L779450] (first compound 0.1 µM, partner dose 0.2 µM) | 77.7 | 111 | 92.3 | 77 | 64.2 | 98.8 | 79.5 | 107 | 80.8 | 60
7 | COc1ccc(C2=N[C@@H](c3ccc(Cl)cc3)[C@@H](c3ccc(Cl)cc3)N2C(=O)N2CCNC(=O)C2)c(OC(C)C)c1 [Nutlin-3] + COc1cc(Nc2ncc(F)c(Nc3ccc4c(n3)NC(=O)C(C)(C)O4)n2)cc(OC)c1OC [Tamatinib] (first compound 0.1 µM, partner dose 0.4 µM) | 92 | 96.2 | 97.3 | 70.2 | 71.5 | 92 | 69.4 | 81.1 | 53.6 | 76.6
8 | Cn1c(=O)n(-c2ccc(C(C)(C)C#N)cc2)c2c3cc(-c4cnc5ccccc5c4)ccc3ncc21 + C=CCn1c(=O)c2cnc(Nc3ccc(N4CCN(C)CC4)cc3)nc2n1-c1cccc(C(C)(C)O)n1 [MK1775] (first compound 0.004 µM, partner dose 0.02 µM) | 98.7 | 81.2 | 93.2 | 97.4 | 72.5 | 87 | 73.9 | 85.2 | 73.9 | 76.4
9 | COc1ccc(C2=N[C@@H](c3ccc(Cl)cc3)[C@@H](c3ccc(Cl)cc3)N2C(=O)N2CCNC(=O)C2)c(OC(C)C)c1 [Nutlin-3] + COc1cc2c(Oc3ccc4[nH]c(C)cc4c3F)ncnc2cc1OCCCN1CCCC1 [cediranib] (first compound 0.1 µM, partner dose 0.4 µM) | 109 | 99 | 109 | 98.4 | 86.4 | 101 | 95.1 | 106 | 95.9 | 85.1
10 | Cc1cc(Nc2cc(N3CCN(C)CC3)nc(/C=C/c3ccccc3)n2)n[nH]1 + c1cc(-c2cnn3cc(-c4ccc(OCCN5CCCCC5)cc4)cnc23)ccn1 [Dorsomorphin] (first compound 0.04 µM, partner dose 0.4 µM) | 98.1 | 93.6 | 102 | 104 | 103 | 99.9 | 95.5 | 73.6 | 92.7 | 102
11 | Cc1cn(-c2cc(NC(=O)c3ccc(C)c(Nc4nccc(-c5cccnc5)n4)c3)cc(C(F)(F)F)c2)cn1 [nilotinib] + COC(=O)c1sccc1S(=O)(=O)Nc1ccc(Nc2ccccc2)cc1OC [GSK0660] (first compound 0.2 µM, partner dose 1 µM) | 87.9 | 111 | 97.2 | 96.7 | 89.2 | 101 | 88.9 | 94.7 | 89.4 | 115
12 | Cc1cc(Nc2cc(N3CCN(C)CC3)nc(/C=C/c3ccccc3)n2)n[nH]1 + COc1ccc(-c2ccc3c(N4CCOCC4)nc(N4C[C@@H](C)O[C@@H](C)C4)nc3n2)cc1CO [KU0063794] (first compound 0.04 µM, partner dose 0.02 µM) | 92.3 | 85.3 | 83 | 116 | 79 | 99.7 | 81.9 | 87.7 | 117 | 109
13 | Cn1c(=O)n(-c2ccc(C(C)(C)C#N)cc2)c2c3cc(-c4cnc5ccccc5c4)ccc3ncc21 + CN(C)S(=O)(=O)c1ccc2c(c1)/C(=C/c1cc3c([nH]1)CCCC3)C(=O)N2 [SU6656] (first compound 0.004 µM, partner dose 0.4 µM) | 100 | 96.4 | 113 | 102 | 78.3 | 97.7 | 97.7 | 107 | 84.5 | 87.6
14 | Cn1c(=O)n(-c2ccc(C(C)(C)C#N)cc2)c2c3cc(-c4cnc5ccccc5c4)ccc3ncc21 + COc1cc(N2CCC(N3CCN(C)CC3)CC2)ccc1Nc1ncc(Cl)c(Nc2ccccc2S(=O)(=O)C(C)C)n1 [NVP-TAE684] (first compound 0.004 µM, partner dose 0.08 µM) | 95.2 | 59.6 | 85.7 | 87.6 | 71.6 | 82.2 | 73 | 100 | 87.8 | 74.7
15 | CC(C)C[C@H](NC(=O)[C@H](Cc1ccccc1)NC(=O)c1cnccn1)B(O)O [Bortezomib] + COc1cc2c(Oc3ccc4[nH]c(C)cc4c3F)ncnc2cc1OCCCN1CCCC1 [cediranib] (first compound 0.001 µM, partner dose 0.4 µM) | 81.5 | 93.7 | 98.8 | 61.9 | 96.9 | 84.3 | 69.1 | 106 | 74 | 76
16 | Cc1cn(-c2cc(NC(=O)c3ccc(C)c(Nc4nccc(-c5cccnc5)n4)c3)cc(C(F)(F)F)c2)cn1 [nilotinib] + NC(=O)Nc1cc(-c2cccc(F)c2)sc1C(=O)N[C@H]1CCCNC1 [AZD7762] (first compound 0.2 µM, partner dose 0.02 µM) | 113 | 100 | 83.9 | 119 | 101 | 107 | 95.9 | 99.5 | 119 | 106
17 | Cc1cn(-c2cc(NC(=O)c3ccc(C)c(Nc4nccc(-c5cccnc5)n4)c3)cc(C(F)(F)F)c2)cn1 [nilotinib] + CC1(C)NC(=O)N(c2ccc([N+](=O)[O-])c(C(F)(F)F)c2)C1=O [nilutamide] (first compound 0.2 µM, partner dose 1 µM) | 99.8 | 92.8 | 108 | 78.4 | 108 | 93 | 95.9 | 94.2 | 93.7 | 96.6
18 | Cc1cn(-c2cc(NC(=O)c3ccc(C)c(Nc4nccc(-c5cccnc5)n4)c3)cc(C(F)(F)F)c2)cn1 [nilotinib] + NCC(=O)Nc1ccc(-n2nc(C(F)(F)F)cc2-c2ccc3c(ccc4ccccc43)c2)cc1 [OSU03012] (first compound 0.2 µM, partner dose 1 µM) | 88.4 | 53.9 | 77 | 87 | 89.3 | 83.4 | 52.4 | 102 | 84.1 | 83.5
19 | Cc1cn(-c2cc(NC(=O)c3ccc(C)c(Nc4nccc(-c5cccnc5)n4)c3)cc(C(F)(F)F)c2)cn1 [nilotinib] + C=CCn1c(=O)c2cnc(Nc3ccc(N4CCN(C)CC4)cc3)nc2n1-c1cccc(C(C)(C)O)n1 [MK1775] (first compound 0.2 µM, partner dose 0.02 µM) | 103 | 104 | 102 | 102 | 90.8 | 84.2 | 78.4 | 94 | 89.1 | 99.1
20 | Cc1cn(-c2cc(NC(=O)c3ccc(C)c(Nc4nccc(-c5cccnc5)n4)c3)cc(C(F)(F)F)c2)cn1 [nilotinib] + O=C(O)C(=O)Nc1sc2c(c1C(=O)O)CCNC2 [TCS401] (first compound 0.2 µM, partner dose 1.66667 µM) | 101 | 76.3 | 96.8 | 85.1 | 112 | 101 | 91.1 | 87.9 | 75 | 111
21 | Cc1cn(-c2cc(NC(=O)c3ccc(C)c(Nc4nccc(-c5cccnc5)n4)c3)cc(C(F)(F)F)c2)cn1 [nilotinib] + CN(NC(=O)CC(=O)NN(C)C(=S)c1ccccc1)C(=S)c1ccccc1 [STA4783] (first compound 0.2 µM, partner dose 0.006 µM) | 104 | 98.5 | 104 | 85 | 116 | 82 | 97.2 | 107 | 79.1 | 86.6
